# Data taken from article PMC4336329 (PLoS ONE, 2015).
# Hit rate of the full screen: of about 310,000 compounds, about 2,200 (0.71%) showed an effect of 50% or more. The effect is printed as a negative number. The list shows a part of the results.
# Molecular target: human ether-à-go-go-related gene (hERG) potassium channel (human, UniProt Q12809)
# Assay: primary screen, population patch clamp on CHO cells stably expressing hERG
# human ether-à-go-go-related gene (hERG) potassium channel, sequence (Q12809 whole entry, looked up): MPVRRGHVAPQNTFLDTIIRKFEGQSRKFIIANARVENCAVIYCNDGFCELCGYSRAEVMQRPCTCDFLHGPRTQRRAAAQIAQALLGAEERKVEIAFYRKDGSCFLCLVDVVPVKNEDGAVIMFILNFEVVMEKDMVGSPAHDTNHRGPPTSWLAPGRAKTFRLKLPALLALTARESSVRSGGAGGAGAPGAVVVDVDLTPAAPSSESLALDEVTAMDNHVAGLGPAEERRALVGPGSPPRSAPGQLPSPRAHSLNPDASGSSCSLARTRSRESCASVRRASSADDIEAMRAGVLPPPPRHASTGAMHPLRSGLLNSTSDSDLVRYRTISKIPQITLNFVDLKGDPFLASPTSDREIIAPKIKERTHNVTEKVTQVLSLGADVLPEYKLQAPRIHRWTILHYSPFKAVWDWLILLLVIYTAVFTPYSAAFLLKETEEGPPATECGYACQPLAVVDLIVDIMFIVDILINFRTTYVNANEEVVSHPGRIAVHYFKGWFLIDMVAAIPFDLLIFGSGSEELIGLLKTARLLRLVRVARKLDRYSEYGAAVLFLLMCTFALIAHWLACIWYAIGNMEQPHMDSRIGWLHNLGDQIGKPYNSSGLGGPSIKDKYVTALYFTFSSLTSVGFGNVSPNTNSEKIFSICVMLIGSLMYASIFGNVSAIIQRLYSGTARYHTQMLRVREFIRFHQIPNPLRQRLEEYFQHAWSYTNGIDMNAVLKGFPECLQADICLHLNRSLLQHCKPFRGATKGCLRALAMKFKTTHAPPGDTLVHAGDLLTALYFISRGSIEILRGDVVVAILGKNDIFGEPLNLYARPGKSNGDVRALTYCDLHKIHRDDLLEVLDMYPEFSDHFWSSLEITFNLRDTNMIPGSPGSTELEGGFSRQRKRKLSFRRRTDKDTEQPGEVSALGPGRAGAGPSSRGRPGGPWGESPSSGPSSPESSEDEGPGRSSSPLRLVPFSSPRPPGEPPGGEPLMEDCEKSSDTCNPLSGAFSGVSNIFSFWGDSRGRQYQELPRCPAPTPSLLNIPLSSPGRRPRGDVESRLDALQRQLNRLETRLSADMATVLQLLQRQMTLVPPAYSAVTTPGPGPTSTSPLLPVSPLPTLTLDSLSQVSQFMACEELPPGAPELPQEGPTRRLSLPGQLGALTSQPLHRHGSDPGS
row,SMILES,"hERG current change (%, negative = inhibition) at 1uM [%]"
1,CCOC(=O)c1nnn(-c2nonc2N)c1CN1CCc2ccccc2C1,3.43
2,O=C(CNc1cc(S(=O)(=O)N2CCOCC2)ccc1N1CCCC1)NCc1ccco1,-37.8
3,Cc1cnc(C(=O)OCC(=O)NC(C)CCc2ccccc2)cn1 (stereo not drawn),4.54
4,Cc1cc(C)nc(NC2=NC3CCCCC3N2)n1 (stereo not drawn),-2.33
5,CCn1c2ccccc2c2cc(NC(=O)CNC)ccc21.O=C(O)C(=O)O,8.92
6,O=C(CCCNS(=O)(=O)c1cccc2nsnc12)NCCN1CCN(c2ccccc2F)CC1,2.78
7,O=C(Nc1cccc(NC(=O)c2cccnc2)c1)c1cccnc1,9.64
8,CCOc1ccc(N/C=C/C(=O)c2ccccc2)c([N+](=O)[O-])c1,14.9
9,Cc1ccccc1NC(=S)N=Nc1c(O)n(C)c2ccc(S(=O)(=O)N3CCOCC3)cc12,-0.652
10,CC(C)CC(=O)N1CCN(Cc2ccc(Br)cc2)CC1,9.67
11,O=C(O)c1cc2nc(-c3cccs3)cc(C(F)(F)F)n2n1,15.1
12,Cn1c(=O)c(=O)n(C)c2cc(S(=O)(=O)CCC(=O)NCc3ccccc3)ccc21,19.2
13,O=C(COc1ccccc1)N1CCc2ccccc2C1,14
14,OCCC#Cc1ccc(CN2CCN(C3CCCCC3)C(CCO)C2)cc1 (stereo not drawn),12.4
15,CC(C)Cn1cnc2sc3c(c2c1=N)CCCC3,5.01
16,CCOC(=O)Cc1csc(N(C)C)n1,0.0664
17,Cc1cccc(NC(=O)CN(C)S(=O)(=O)c2ccc(-c3ccc(=O)[nH]n3)s2)c1C,-5.3
18,CCOC(=O)c1ccc(NC(=O)CSC2=NC(=O)C(CC)C(=O)N2)cc1 (stereo not drawn),16.8
19,Cc1ccc(NC(=O)C(C)OC(=O)c2ccc(NS(=O)(=O)c3ccc(F)c(F)c3)cc2)cc1 (stereo not drawn),14
20,CC(C)Cn1c(=O)c(CCC(=O)Nc2ccc(N3CCOCC3)cc2)nc2cc(Cl)ccc21,13.2
21,COCCNC(=O)c1onc(CSc2ccc(Cl)cc2)c1C(=O)O,9.56
22,O=C(Cc1c(F)cccc1Cl)Nc1cccnc1,14.7
23,O=C(CSc1nnc(NC(=O)c2cccc(Cl)c2)s1)NCC1CCCO1 (stereo not drawn),16.1

row,SMILES,"hERG current change (%, negative = inhibition) at 1uM [%]"
1,O=C(Nc1ccccc1)N1CCc2ccccc21,6.6
2,CCOC(=O)c1csc(NC(=O)c2ccc(S(=O)(=O)N(CC)CC)cc2)n1,8.68
3,O=C(C1=C(O)C(=O)N(CCN2CCOCC2)C1c1ccc([N+](=O)[O-])cc1)c1cc2ccccc2o1 (stereo not drawn),9.77
4,Cc1ccc2[nH]c(=O)c(-c3noc(CC(C)C)n3)cc2c1,8.46
5,COc1ccc(CCNC(=O)Cn2c(=O)n(CCCC(=O)NCc3ccco3)c(=O)c3sccc32)cc1OC,11.2
6,CC(=O)Nc1ccc(S(=O)(=O)N(c2cccnc2)S(=O)(=O)c2ccc(NC(C)=O)cc2)cc1,-8.93
7,Cc1cc(C)n(C(=O)c2ccc(NC(=O)C3CC3)cc2)n1,10.7
8,CC(=O)Nc1nonc1-n1nnc(C(=O)NCc2ccccc2)c1C,1.87
9,Oc1ccc(/C=N/N2CCCCC2)c(O)c1,13.4
10,CCCC(=O)N(c1ccccc1)C1C=CS(=O)(=O)C1 (stereo not drawn),-0.782
11,O=C(/C=C/c1ccccc1)NC(NC(=S)Nc1cccc(Cl)c1)C(Cl)(Cl)Cl (stereo not drawn),8.13
12,CC(=O)NNC(=O)CN1C(=O)/C(=C/c2ccccc2)SC1=S,12
13,Nc1c(C(=O)Nn2cnnc2)cc([N+](=O)[O-])cc1[N+](=O)[O-],5.97
14,CCCN(CCC)C(=O)c1ccc2c(=O)n(Cc3ccco3)c(=S)[nH]c2c1,9.13
15,NS(=O)(=O)c1ccc(NC(=S)NC(=O)c2cccs2)cc1,15.5
16,CCOC(=O)c1oc2ccc(Br)cc2c1COC(=O)C1=COCCO1,12.1
17,COC(=O)c1ccc(CSc2nc3ccc(Cl)cc3[nH]2)o1,6.36
18,Cc1ccc(-c2cc(=O)[nH][nH]2)c(C)c1,-4.61
19,Cc1ccc(NC(=O)c2ccn(C)n2)c(Br)c1,7.39
20,CCCCn1c(=O)[nH]c2c(oc3ccccc32)c1=O,7.62
21,COc1ccc(/C=N/NC(=O)c2ccc(COc3ccccc3Cl)o2)c(OC)c1C,9.1
22,O=C(CSc1nnc2n(C3CCCCC3)c(=O)c3ccccc3n12)OC1CCCCC1,-0.251
23,CCCCNC(=O)c1cc(C)nc2ccccc12,2.35

row,SMILES,"hERG current change (%, negative = inhibition) at 1uM [%]"
1,CC(C)(C)c1ccc(C(=O)NC(=O)CSc2n[nH]c(N)n2)cc1,10.3
2,COc1ccccc1C(CCNCc1ccc(N(C)C)cc1)c1ccc(OC(C)C)cc1 (stereo not drawn),-3.95
3,C#CCNC(=O)/C=C/c1ccc(C)cc1,19
4,CCCOc1cccc(C2C(C(=O)c3ccco3)=C(O)C(=O)N2CCN(CC)CC)c1 (stereo not drawn),5.67
5,CCSc1nnc(Nc2ccc(C)cc2)s1,11.9
6,Cc1ccc(C2CC(c3ccccc3C)n3nc(N)nc3N2)cc1 (stereo not drawn),5.99
7,O=C(CN1C(=O)c2ccccc2S1(=O)=O)Nc1ccc(S(=O)(=O)N2CCCCCC2)cc1,13.6
8,O=C(Nc1ccc(S(=O)(=O)NC2=NCCCCC2)cc1)c1ccc2ccccc2n1,14.2
9,CC1CCCN(C(=O)COC(=O)c2cccc(NS(=O)(=O)c3ccccc3)c2)C1 (stereo not drawn),-0.847
10,O=C(CN1CCN(S(=O)(=O)c2ccc(Br)cc2)CC1)N/N=C/c1ccc(Br)s1,0.52
11,Cn1ncc(N)c1C(=O)Nc1cccc(C(F)(F)F)c1,-0.822
12,CC1C(=O)N2CCCc3cc(NC(=O)C(=O)NCc4ccc5c(c4)OCO5)cc1c32 (stereo not drawn),6.89
13,COCCNC(=S)N/N=C(\C)CCc1ccc2c(c1)OCO2,8.01
14,CC1CCCC(NC(=O)c2cn(C)c3ccc(S(=O)(=O)N4CCCC4)cc3c2=O)C1C (stereo not drawn),-4.34
15,O=S(=O)(c1ccccc1)N1CCN(C(=S)NC2CCCC2)CC1,10.7
16,O=[N+]([O-])c1ccc(CN2CCN(c3ccc(F)cc3)CC2)o1,16.3
17,CCCCN(C)Cc1c(C(=O)N2CCc3ccccc3C2)nc2ccc(Cl)cn12,2.59
18,Cc1ccc2nc(SCC(=O)Nc3oc(C)c4c(C)n[nH]c(=O)c34)[nH]c2c1,17.8
19,Cc1cc(C(=O)Nc2cnc3ccccc3c2)ccc1[N+](=O)[O-],13.6
20,C/C(=C1\SC(N2CCOCC2)=NC1=O)c1ccccc1,3.48
21,COc1cc(OC)cc(-c2nnc(NC(=O)CCS(=O)(=O)c3ccc(F)cc3)o2)c1,12.4
22,CCC(C(=O)Nc1ccc2[nH]ncc2c1)c1ccccc1 (stereo not drawn),9.84
23,COc1cc(/C=C/c2nc3ccccc3c(=O)[nH]2)cc(Cl)c1O,19.4

row,SMILES,"hERG current change (%, negative = inhibition) at 1uM [%]"
1,COc1ccc(S(=O)(=O)N2CCC(C(=O)N3CCCC3)CC2)cc1Cl,2.19
2,COc1cc(OC)c(C2Nc3cccc4cccc(c34)N2)c(OC)c1,8.78
3,CCOc1ccc(CCNC(=O)Cn2c(-c3nonc3N)nc3ccccc32)cc1OCC,7.38
4,Cc1cccc(/C(N)=N/OC(=O)COc2ccc(Cl)cc2)c1,6.96
5,C=C(C)Cn1c(SCCCO)nc2c1c(=O)[nH]c(=O)n2C,8.87
6,O=C(O)c1ccc(N2C(=O)c3cccc4cccc(c34)C2=O)cc1,16.7
7,Cc1cc(CN2CCCC(CO)(Cc3cccc(Cl)c3)C2)n[nH]1 (stereo not drawn),-8.25
8,CCNc1nc(NC(C)C)nc(N(C#N)CC(=O)OC)n1,8.17
9,Cc1ccc(-c2cc(C(=O)NNC(=O)c3csc(N4CCOCC4)n3)c3ccccc3n2)cc1,14.1
10,CC(C)c1ccc(C(=O)NC(=S)NCc2cccnc2)cc1,5.56
11,COC(=O)c1ccc2c(c1)N(C)CCS2,8.41
12,O=C(NCCCN1CCCCC1)c1ccc2c(c1)NC(=O)C(N1CCOCC1)S2 (stereo not drawn),8.02
13,COc1ccccc1CNC(=O)c1cc2c(C)nn(Cc3ccc(F)cc3)c2s1,2.55
14,CC(C)Sc1ccccc1C(=O)Nc1ccc2c(c1)n(C)c(=O)n2C,15.1
15,CCNC(=S)N1CCN(C(c2ccccc2)c2ccccc2)CC1,11.1
16,CCOC(=O)NC(=O)CSc1cc(C)c2cc(C)cc(C)c2n1,13.2
17,COCCNC(=O)CN(c1cccc(OC)c1)S(=O)(=O)c1ccc(C)cc1,1.78
18,CCOc1ccc(OCCOCCN2CCc3ccccc3C2)cc1,-35.4
19,CS(=O)(=O)N1CCN(c2ccc(NC(=O)c3cc4ccccc4o3)cc2)CC1,11.9
20,O=[N+]([O-])c1ccc(N/N=C/c2ccccc2O)cc1,13
21,COC(OC)c1ccnc(SCc2ccccc2Cl)n1,0.772
